Experimental data reported in PubChem BioAssay AID686978 (National Center for Advancing Translational Sciences (NCATS), 2013).
Screen size: about 420,000 compounds; about 64,000 (15%) were called active. This list was built around the results that the source calls inconclusive (neither active nor inactive); the mix of calls is not that of the screen. Calls follow the shape of the dose curve; as a rule, active = well fitted inhibition curve with a large enough effect; inconclusive = small, poorly fitted or top-dose-only effect; inactive = flat fitted curve, though single readings scatter. Potencies of inconclusive entries are left out as doubtful fits.

assay: qHTS for Inhibitors of human tyrosyl-DNA phosphodiesterase 1 (TDP1): qHTS in cells in absence of CPT; details: DT40 Tdp1-/- hTDP1 cells, no CPT, ATP luminescence, 48 h; activity change, negative = growth inhibition: at 46.2 µM (top of the series) unless noted; also: nearly all actives have a fitted effect of over 55% in size
How it was run: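 Cells were dispensed at 400 per well, compounds added by pin tool, plates incubated ≥48 hr at 37 °C, then CellTiter-Glo added for 30 min at room temperature before luminescence reading. Line: DT40 Tdp1-/- complemented with hTDP1; camptothecin omitted.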
% is scaled to controls: 0 for no effect and ±100 for the full control effect; potency is read from the fitted curve at half-maximal effect; tags tell the direction and shape of the fitted curve.

Compound | activity change, negative = growth inhibition | Potency
C/C(=N\N=C(/N)SC1CC(=O)N(c2ccc(Cl)cc2)C1=O)c1cccs1 (configuration not stated) | inactive: -17.9% | –
Cc1ccc(OC(C)C(=O)Nc2ccc(F)cc2)c([N+](=O)[O-])n1 (configuration not stated) | inactive: -6.82% | –
COc1ccc(N2CCN(C(=O)C3(C)CC3(Cl)Cl)CC2)cc1 (configuration not stated) | inactive: -0.843% | –
Brc1cccc[n+]1C/C=C/C[n+]1ccccc1Br | inactive: -18.3% | –
Cc1ccc(C(=O)N2CC(C)SC2=Nc2cccc(S(=O)(=O)N(C)C)c2)cc1 (configuration not stated) | – | inconclusive [inhibitor, single point]
O=[N+]([O-])c1ccc(COc2ccc(Br)cc2CN2CCOCC2)cc1 | – | inconclusive [inhibitor, single point]
O=C(O)c1ccccc1NCc1ccco1 | – | inconclusive [inhibitor, single point]
CCOc1ccccc1N1CCN(C(=O)Cc2ccc(S(=O)(=O)N3CCOCC3)s2)CC1 | – | active: 20.6 µM
CCCCN(C)CCN1C(=O)C2C(C(=O)Nc3cccc(OC)c3)C3C=CC2(O3)C1C(=O)NC1CCCCC1C (configuration not stated) | – | inconclusive [inhibitor, single point]
O=C(NCCC1=CCCCC1)C1CCCN(S(=O)(=O)c2ccc(F)cc2)C1 (configuration not stated) | – | active: 20.6 µM
O=C(CSc1cccc[n+]1[O-])NC1CCCCC1 | inactive: -9.74% | –
CC(C)n1c(=S)[nH]c2cc(C(F)(F)F)ccc21 | – | active: 16.4 µM
COC(=O)c1c(NC(=O)CSc2nc3ccccc3c(=O)n2-c2ccccc2)sc(C)c1C | – | inconclusive [inhibitor, partial curve]
Cc1ccc(OCCn2c(=O)cnc3ccccc32)cc1 | – | inconclusive [inhibitor, single point]
CNC(=O)c1cc(C(=O)c2ccc(Cl)cc2)c(Br)[nH]1 | – | inconclusive [inhibitor, single point]
COc1ccc(N(CC(=O)Nc2ccc3c(c2)OCCO3)S(=O)(=O)c2cccc(C)c2)cc1 | – | inconclusive [inhibitor, partial curve, poor fit]
Cc1ccc(S(=O)(=O)N2CCOCC2)cc1C(=O)Nc1ccc2c(c1)CCC2 | – | inconclusive [inhibitor, partial curve]
Cc1cccc(-c2noc(-c3ccccc3C(=O)NCC3CCCO3)n2)c1 (configuration not stated) | – | inconclusive [inhibitor, single point]
CC(=O)c1cccc(Nc2nc(-c3ccccc3)cs2)c1 | – | inconclusive [inhibitor, single point]
c1ccc2c(c1)NCC1CCCN21 (configuration not stated) | – | active: 16.4 µM
Cc1cc(C)c2nc(N3CCCC3)c(C#N)cc2c1 | inactive: -23.4% | –
O=C(Cc1ccsc1)Nc1ccc(S(=O)(=O)C(F)F)cc1 | – | inconclusive [inhibitor, single point]
CC(=O)Nc1cc(-c2ccccc2)nn1Cc1cccc(Cl)c1 | inactive: -26.4% | –
Cn1c(CO)cnc1S(=O)(=O)Cc1c(Cl)cccc1Cl | inactive: 18.4% | –

Compound | activity change, negative = growth inhibition | Potency
c1cncc(-c2nnc(C3CCCCC3)o2)c1 | inactive: 0.153% | –
Cn1c(=O)[nH]c(=O)c2c1nc(CN1CCN(c3ccc(F)cc3)CC1)n2CCc1ccccc1 | inactive: -16.6% | –
COc1ccc(CCC(=O)NCc2nc3cccnc3n2Cc2ccccc2)cc1 | – | active: 16.4 µM
Cc1cccc(Nc2nc(N)c([N+](=O)[O-])c(NCc3ccccc3)n2)c1 | – | inconclusive [inhibitor, single point]
CCOC(=O)c1c(NC(=O)Cc2ccccc2)sc2c1CCN(CC)C2 | – | inconclusive [inhibitor, single point]
Cc1ccc(CNC(=O)CN(c2ccc(C)cc2)S(=O)(=O)c2c(C)n[nH]c2C)cc1 | inactive: -22.1% | –
CCCC12CN3CC(C)(CN(C1)C3c1ccc(OC(C)C)cc1)C2=O (configuration not stated) | – | inconclusive [inhibitor, partial curve]
COc1cc(C(=O)Nc2nnc(Cc3ccccc3)s2)cc(OC)c1OC | – | inconclusive [inhibitor, single point]
Cc1ccc2c(c1)CN(C(=O)CC(c1ccccc1)c1ccco1)CC(C)O2 (configuration not stated) | – | inconclusive [inhibitor, single point]
Cc1cnc(C)c(N2CCN(Cc3nc(-c4cccc(F)c4F)oc3C)CC2)n1 | – | inconclusive [inhibitor, partial curve, poor fit]
Cc1ccc(-c2ccnc3nc(-n4cccc4)nn23)o1 | – | active: 20.6 µM
CC(C)(C)c1ccc(-n2ncc3c2CCCC3NC(=O)CN2CCOC2=O)cc1 (configuration not stated) | – | active: 16.4 µM
O=C(O)CCN1C(=O)c2ccc(NC(=O)CSc3ccccc3)cc2C1=O | inconclusive: -35% [inhibitor] | –
COCCNc1nc(Nc2ccccc2Cl)c2sc(-c3ccccc3)cc2n1 | – | inconclusive [inhibitor, partial curve]
CC(=O)c1ccc(NC(=S)Nc2cccc(Cl)c2C)cc1 | inactive: -29.9% | –
CCN(CC)C(=O)c1cccc(NC(=O)CC23CC4CC(CC(C4)C2)C3)c1 | – | inconclusive [inhibitor, single point]
NS(=O)(=O)c1ccc(CNC(=O)c2scc3c2CCCC3)cc1 | inactive: 9.66% | –
Nc1c(C(=O)N/N=C/c2cccnc2)oc2nc(-c3ccccc3)cc(-c3ccco3)c12 | – | active: 14.6 µM
Cc1ccc(CCNC(=O)C23CN(Cc4ccccc4)CC2C(c2cccc([N+](=O)[O-])c2)=NO3)cc1 (configuration not stated) | – | inconclusive [inhibitor, single point]
CC(C)N(Cc1nc(-c2ccccc2)no1)C(=O)c1ccc(Br)o1 | – | active: 16.4 µM
Cc1c(OCC(=O)N(C)C)ccc2c3c(c(=O)oc12)CCCCC3 | – | inconclusive [inhibitor, single point]
CC(C)Oc1ccc(C(=O)Nc2ccc(-c3nc4ccccc4s3)cc2)cc1 | – | inconclusive [inhibitor, full curve]
O=C(OCc1cc(-c2ccccc2)no1)c1ccc2ccccc2n1 | – | inconclusive [inhibitor, single point]
